The supplement of paper PMC10338343
± gives the standard deviation. Over roughly 3,000 sequences, “pre-steady-state target cleavage rate” has its median near 0.0079; the highest 2% begin near 0.2. Only a part is listed here, and it is no random draw.

tested on: MILI (PIWIL2) piRISC loaded with piRNA #2 (26 nt); assay: pre-steady-state target cleavage rate (min^-1); MIWI and MILI are mouse PIWI proteins and EfPiwi is from a freshwater sponge; tags in brackets are library labels; higher = faster piRNA-guided slicing of the target; conditions: guide: piRNA #2 5'p-UUAGGUAACCCAGUAGAUCCAGAGGA; auxiliary factor: 500 nM mouse GTSF1
In short: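 The method was Cleave-'n-Seq, in which uncleaved targets from a transcribed, DNA-blocked target RNA library were sequenced after exposure to active affinity-purified piRISC carrying one synthetic guide, with or without GTSF1 partner protein. Reactions contained 0.1 nM library, 1 nM piRISC and, where present, 500 nM GTSF1 in HEPES–potassium acetate buffer at 33 °C for 0–8 or 0–960 min. Reads were normalised to depth and to weakly complementary targets, three trials were pooled, and k3 was capped at 0.0001 min^-1. The pre-steady-state cleavage rate came from a burst-and-steady-state fit.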

| Sequence | pre-steady-state target cleavage rate |
| --- | --- |
| CUUAUCCUCUGCAUCUACUGGCUUACCUAA | 0.00387 ± 0.0038 |
| CUUAUCCUCUGUGAUCUACUGGGUUACCUAA | 0.0855 ± 0.017 |
| CUUAUCCUCUCGAUCUACUGGGUAACCUAA | 0.0833 ± 0.02 |
| CUUAACCUCUGCAUCUACUGGGUUAGCUAA | 0.0731 ± 0.033 |
| CUUAAGCUCUGGUUCUACUGGGAUACCUAA | 0.0905 ± 0.038 |
| CUUAACCUCUGGAUCAACUGCGUUACCUAA | 0.007 ± 0.0041 |
| CUUAACCUCGUGGAUCUACUGGGUUACCUAA | 0.0507 ± 0.024 |
| CUUAAGCUCUGGAACUACUGGGUUACCAAA | 0.0603 ± 0.017 |
| CUUAAGGACUGGAAGUACUGGGUUACCUAA | 0.0144 ± 0.011 |
| CUUAACCUCUGGAUCUUGUGGGUUACCUAA | 0.0204 ± 0.0087 |
| CUUAACCUCUCGAUCUACUGGGUAACCUAA | 0.0796 ± 0.017 |
| CUUAUCCUCUGGAUCUAGAGGGUUACCUAA | 0.0653 ± 0.018 |
| CUUAACCUCGGGAUCUACUGGGUUACCUAA | 0.077 ± 0.031 |
| CUUAAGGUUGGAUCUACUGGGUUACCUAA | 0.0237 ± 0.014 |
| CUUAACCUCUGGAUCUACUGGGAUACGUAA | 0.00919 ± 0.0053 |
| CUUAACCUCUGGAUCUACUGGGUUAACUAA | 0.135 ± 0.025 |
| CUUAAGGUCUGGUUCUACUGGGUAACCUAA | 0.011 ± 0.0078 |
| CUUAUCCUCUGGAUCAAGUGGGUUACCUAA | 0.0417 ± 0.0092 |
| CUUAAGGUCAGGAUCUUCUGGGUUACCUAA | 0.0121 ± 0.0079 |
| CUUAAGGAGAGAGAUCUACUGGGUUACCUAA | 0.00828 ± 0.0038 |
| CUUAAGGACUGGAUUUACUGGGUUACCUAA | 0.0377 ± 0.019 |

| Sequence | pre-steady-state target cleavage rate |
| --- | --- |
| CUUAUCGUCUGGAUCUACUGGGUUUCCUAA | 0.0411 ± 0.011 |
| CUUAUCCUCUGGAUUCUACUGGGUUACCUAA | 0.12 ± 0.031 |
| CUUAAGCUCUGGUUCUAGUGGGUUACCUAA | 0.0926 ± 0.021 |
| CUUAAGGUCUGGAUUACUGGGUUACCUAA | 0.00675 ± 0.0055 |
| CUUAAGCUGUGGAUGUACUGGGUUACCUAA | 0.0455 ± 0.03 |
| CUUAAGCUCUGGACCUACUGGGUUACCUAA | 0.0301 ± 0.013 |
| CUUAACCUCUGCAUCUACUGGGUAACCUAA | 0.0645 ± 0.021 |
| CUUAAGGAGACCUAGUACUGGGUUACCUA | < 0.0001 |
| CUUAUCCUCUGGAUCUACUGGGAAACCUAA | 0.0949 ± 0.035 |
| CUUAAGCUCUGCAUCUACUGGGUAACCUAA | 0.0247 ± 0.0069 |
| CUUAACCUCUGGAUCUACUGGGUAACCAAA | 0.0211 ± 0.0092 |
| CUUAAGCUCUGGAUCUACUGGGAUACCAAA | 0.0258 ± 0.0092 |
| CUUAUCGACUGGAUCUACUGGGUUACCUAA | 0.0851 ± 0.018 |
| CUUAAGGUCUGGAUGUACUGGGUUACCUUA | 0.0242 ± 0.016 |
| CUUAAGCUCUGGAACUACUGGGAUACCUAA | 0.0218 ± 0.01 |
| CUUAAGGUCUGGCAUCUACUGGGUUACCUAA | 0.211 ± 0.069 |
| CUUAACCUCUCCUUCUACUGGGUUACCUAA | 0.0862 ± 0.019 |
| CUUAAGGACUGGAUCUACAGGGUAACCUAA | 0.00684 ± 0.006 |
| CUUAAGGUCUGGAUCUACAGGGAUACCUAA | 0.0548 ± 0.015 |
| CUUAAGGUCUGGAUCUACUGGGUUGACCUAA | 0.045 ± 0.011 |
| CUUAAGGUCUGGAUCUAUUGGGUUACCUAA | 0.094 ± 0.024 |

| Sequence | pre-steady-state target cleavage rate |
| --- | --- |
| CUUAUCCUCUGGAACUACUCGGUUACCUAA | 0.00544 ± 0.0035 |
| CUUAAGGUCUGGAUCUACUGGGUAUACCUAA | 0.0617 ± 0.012 |
| CUUAAGGUCUGGUUCUACUGGGUUAGCUAA | 0.0165 ± 0.009 |
| CUUAAGGAGAGGAUCUACUGGGUUACCUAU [g2:g20:cont:t1U] | 0.015 ± 0.0051 |
| CUUAAGGUCAGCAUCUACUGGGUUACCUAA | 0.0206 ± 0.01 |
| CUUAACCUCUCGAUCUACUGGGUUUCCUAA | 0.138 ± 0.035 |
| CUUAACCUCUGGAUCUACACGGUUACCUAA | 0.0116 ± 0.0037 |
| CUUAAGGACUGGAUCUACCGGGUUACCUAA | 0.014 ± 0.0053 |
| CUUAUCCUCUGGAUCUACUGGGUUACCUAAA | 0.122 ± 0.025 |
| CUUAACGUCUGGAUCUACUGGGUUACCUAA | 0.0954 ± 0.014 |
| CUUAAGGACUGGAUCUAAUGGGUUACCUAA | 0.0396 ± 0.012 |
| CUUAAGGAGUGGAUCUAGUGGGUUACCAAA | 0.00587 ± 0.0039 |
| CUUAUCCUCUGGAUCUACUGGGUUGACCUAA | 0.132 ± 0.031 |
| CUUAUCCCUGGAUCUACUGGGUUACCUAA | 0.12 ± 0.029 |
| CUUAUCCUCUGCUACUACUGGGUUACCUAA | 0.0739 ± 0.016 |
| CUUAUCAUCUGGAUCUACUGGGUUACCUAA | 0.138 ± 0.019 |
| CUUAUCCUCUGGAUCUACUGGGUUACCUAG [g2:g26:cont:t1G] | 0.168 ± 0.036 |
| CUUAUCGUCUGGAUCUACUGGGUUACCAAA | 0.0225 ± 0.0083 |
| CUUAAGGAGUGGAUCUACUGGGUUAUCUAA | 0.0175 ± 0.0069 |
| CUUAUCCUCUGGAUCUACUGGGUUAGCUAA | 0.129 ± 0.025 |
